# Test results published in PubChem BioAssay AID686978 (National Center for Advancing Translational Sciences (NCATS), 2013).
# About 64,000 (15%) of roughly 420,000 compounds were called active. This list was built around the results that the source calls inconclusive (neither active nor inactive); the mix of calls is not that of the screen. Calls come from the whole dose curve; as a rule, active = well fitted inhibition curve with a large enough effect; inconclusive = small, poorly fitted or top-dose-only effect; inactive = flat fitted curve, though single readings scatter. No potency is given beside an inconclusive call; the fits are too rough. More than one record can exist for a structure, and the calls need not agree.
# Test: qHTS for Inhibitors of human tyrosyl-DNA phosphodiesterase 1 (TDP1): qHTS in cells in absence of CPT; note: nearly all actives have a fitted effect of over 55% in size
# Settings: DT40 Tdp1-/- hTDP1 cells, no CPT, ATP luminescence, 48 h; activity change, negative = growth inhibition: at 46.2 µM (top of the series) unless noted
# Summary of the method: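 Growth kinetics read by CellTiter-Glo luminescence after ≥48 hr at 37 °C. Cells: DT40 Tdp1-/- stably carrying human TDP1, 400 per well, compound exposure in the absence of CPT (DMSO vehicle).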
# % is set by controls: 0 for no effect and ±100 for the full control effect; potency is the fitted concentration of half-maximal effect; tags give direction and shape of the fitted curve.
Compound,Potency,"activity change, negative = growth inhibition"
Cc1ccc(C(=O)O/N=C(\N)Cc2cccc3ccccc23)cc1,"inconclusive [inhibitor, single point]",–
Cc1nc(SCC(=O)N2c3ccccc3NC(=O)CC2C)c2c(C)c(C)sc2n1 (centres undefined),"inconclusive [inhibitor, single point]",–
COC(=O)C1=C(C)NC(=O)CC1c1ccc(F)c(Br)c1 (centres undefined),–,inactive: -18.8%
O=C(C=Cc1ccco1)c1ccc2ccccc2c1,"inconclusive [inhibitor, single point]",–
CCC(C)c1ccccc1N1CC(C(=O)Nc2ccc(S(=O)(=O)N3CCOCC3)cc2)CC1=O (centres undefined),active: 23.1 µM,–
COc1ccc(NC(=O)CN(C)C(=O)c2cccc(-n3cccc3)c2)cc1,–,inactive: -28.3%
O=C(Nc1ccc(F)cc1)c1ccc(-n2cncn2)c([N+](=O)[O-])c1,"inconclusive [inhibitor, single point]",–
Cn1nc(C(C)(C)C)cc1C(=O)N1CCCCC1c1cc(C(=O)Nc2ccccc2Cl)no1 (centres undefined),active: 20.6 µM,–
CCC(C)NC(=O)CSc1nnc(-c2ccncc2)n1-c1ccc(OC)cc1 (centres undefined),–,inactive: -3.03%
O=C(O)CSc1c2c(nc3cc(C(=O)N4CCOCC4)ccc13)CCCC2,"inconclusive [inhibitor, single point]",–
CC(C)NCC(O)COc1cccc2ccccc12 (centres undefined),active: 16.4 µM,–
CCOc1ccc(-c2nc(=S)[nH][nH]2)cc1,"inconclusive [inhibitor, single point]",–
CSc1nc(Cl)cc(Nc2ccc(O)cc2)n1,"inconclusive [inhibitor, single point]",–
COc1ccccc1C(CNC(=O)CCNS(=O)(=O)c1ccc(Br)cc1)N1CCCC1 (centres undefined),–,inconclusive: -33.6% [inhibitor]
O=C(CSc1nnc(SCc2ccccc2)s1)N/N=C/c1c(Cl)cccc1Cl,"inconclusive [inhibitor, single point]",–
CCOc1cc(C(=O)OCC(=O)c2c(C)[nH]c3ccccc23)ccc1OCC(=O)N1CCOCC1,"inconclusive [inhibitor, partial curve, poor fit]",–
C/C=C/CSc1nc2c(c(=O)[nH]c(=O)n2C)n1Cc1ccc(C)cc1,–,inactive: -21.9%
COc1ccc(OC)c(NC(=O)NCc2ccc(F)cc2)c1,–,inactive: -13.3%
COc1cccc(N2C(=NC(=O)C3CCCO3)SC3CS(=O)(=O)CC32)c1 (centres undefined),–,inactive: 1.88%
CCOC(=O)CSc1nnc2n(-c3ccccc3)c(=O)c3c4c(sc3n12)CC(C(C)(C)C)CC4 (centres undefined),"inconclusive [inhibitor, single point]",–
CC(C)C[C@@H](CNCC(=O)[C@H](CC(C)C)NC(=O)c1[nH]cnc1C(=O)N[C@H](CN)CC(C)C)NC(=O)c1nc[nH]c1C(=O)N[C@@H](Cc1ccccc1)C(=O)O,"inconclusive [inhibitor, single point]",–
COc1ccc(-n2c(SCC(=O)C(C)(C)C)nc3ccsc3c2=O)cc1,"inconclusive [inhibitor, partial curve]",–

Compound,Potency,"activity change, negative = growth inhibition"
Cc1c(C)n(C)c2ccc(C(=O)NCc3cccc(F)c3)cc12,active: 16.4 µM,–
CC(=O)Nc1sc(N/N=C/c2ccccc2)nc1-c1ccc(C)cc1,"inconclusive [inhibitor, partial curve]",–
O=C(CCN1CCN(CCO)CC1)Nc1ccc(OCc2ccccc2)cc1,–,inactive: -16.4%
CCN1/C(=C/C=C/C=C/C=C/c2sc3ccccc3[n+]2CC)Sc2ccccc21,active: 0.231 µM,–
COC(=O)c1cccc(NC(=O)/C=C/c2ccc([N+](=O)[O-])cc2)c1,"inconclusive [inhibitor, single point]",–
Nc1cc(=O)[nH]c(SCC(=O)Nc2cc(Cl)cc(Cl)c2)n1,–,inconclusive: -31.9% [inhibitor]
COc1cc(OC)cc(-c2cc3nc(C)c(CCC(=O)NCc4ccc(Cl)cc4)c(C)n3n2)c1,"inconclusive [inhibitor, single point]",–
Cc1ccc(/C=N/NC(=O)c2ccccc2OCc2ccc(F)cc2)o1,active: 2.91 µM,–
CC(=O)c1ccc(OCCCC(=O)Nc2ccc(S(=O)(=O)N3CCOCC3)cc2)cc1,"inconclusive [inhibitor, partial curve]",–
CC1(C(=O)NS(=O)(=O)c2cccc(OC(F)F)c2)CCN1C(=O)C1CC1 (centres undefined),–,inactive: 2.72%
O=C1[C@H]2[C@@H](c3ccc(F)cc3)N3C(=O)N(c4cccc(Cl)c4)C(=O)[C@@]3(Cc3ccc(Cl)cc3)[C@H]2C(=O)N1C1CCCCC1,"inconclusive [inhibitor, single point]",–
CC(C)c1ccc(C(=O)OCC(=O)c2c(N)n(C)c(=O)n(C)c2=O)cc1,"inconclusive [inhibitor, single point]",–
COc1ccc(C(=O)/C=C/c2ccc3c(c2)OCCO3)cc1,"inconclusive [inhibitor, single point]",–
COC(=O)[C@H](Cc1ccccc1)NC(=O)NCCc1ccc(S(N)(=O)=O)cc1,–,inactive: -4.14%
CCn1cc(C(=O)NCCCN2CCCC(C)C2)c(=O)c2cc(S(=O)(=O)N3CCc4ccccc4C3)ccc21 (centres undefined),"inconclusive [inhibitor, single point]",–
C=CCSc1nccc(-c2cc(Cl)sc2Cl)n1,–,inactive: 0.0744%
COc1ccc(N(CC(=O)Nc2cccc(N(C)S(C)(=O)=O)c2)S(C)(=O)=O)cc1OC,–,inactive: -25.1%
Cc1cccc(-n2nc3c(c2NC(=O)c2ccc4c(c2)OCO4)CS(=O)(=O)C3)c1C,–,inactive: 20.3%
COc1ccc(C(=O)Nc2ccc(-n3nncc3-c3ccccc3)cc2)cc1OC,"inconclusive [inhibitor, partial curve, poor fit]",–
Cc1cccc(N2CCN(C(=O)Cn3ncc4c5ccccc5n(C)c4c3=O)CC2)c1C,–,inactive: -11.9%
CCOC(=O)c1ccc(CNC(=O)c2n[nH]c(=O)c3ccccc23)o1,"inconclusive [inhibitor, single point]",–
COc1ccc(/C(C)=N/N=C2/NC(=O)CC(C(=O)O)S2)cc1 (centres undefined),"inconclusive [inhibitor, single point]",–
